Data on 63 compounds can be found in PMC6919601, “Identification of Plasmodium dipeptidyl aminopeptidase allosteric inhibitors by high throughput screening” (PLoS ONE, 2019).

The whole screen tested about 110,000 compounds, of which about 230 (0.21%) showed an effect of 50% or more. The list shows a part of the results.
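Note: 30 min substrate incubation versus DMSO and 10 µM JCP410 controls.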

Sequence of DPAP1 (Q8IIJ9 whole entry, looked up): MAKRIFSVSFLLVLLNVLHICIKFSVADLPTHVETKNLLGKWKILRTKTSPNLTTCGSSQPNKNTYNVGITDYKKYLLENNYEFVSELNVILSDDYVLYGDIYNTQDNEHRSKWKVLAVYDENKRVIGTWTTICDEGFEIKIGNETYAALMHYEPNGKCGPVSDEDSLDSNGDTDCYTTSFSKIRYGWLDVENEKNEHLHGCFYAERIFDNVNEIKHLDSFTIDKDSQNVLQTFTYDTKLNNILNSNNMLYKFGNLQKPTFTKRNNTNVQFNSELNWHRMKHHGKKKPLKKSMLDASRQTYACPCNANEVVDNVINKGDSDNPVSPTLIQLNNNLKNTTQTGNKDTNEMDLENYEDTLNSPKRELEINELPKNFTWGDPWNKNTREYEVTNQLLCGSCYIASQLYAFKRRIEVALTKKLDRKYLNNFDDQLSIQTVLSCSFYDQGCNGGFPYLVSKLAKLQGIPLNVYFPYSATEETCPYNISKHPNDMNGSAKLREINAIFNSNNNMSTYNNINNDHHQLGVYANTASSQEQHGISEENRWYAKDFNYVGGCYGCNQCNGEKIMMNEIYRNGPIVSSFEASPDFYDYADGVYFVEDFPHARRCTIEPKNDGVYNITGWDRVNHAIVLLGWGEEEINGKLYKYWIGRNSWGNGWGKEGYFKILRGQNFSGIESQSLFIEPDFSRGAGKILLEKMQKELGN

This test concerns the target DPAP1 (Plasmodium falciparum, UniProt Q8IIJ9). As to the kind of experiment: primary screen, percent inhibition; read by cleavage of a fluorogenic dipeptide substrate; higher = more effect of the substance. More on the design: species or system P. falciparum D10 trophozoite lysates; single well.
Consider `COc1ccc(-c2csc(/C(C#N)=C/c3ccco3)n2)cc1`, for which the “% Inhibition @ 10 uM” value is on record as -0.771%.
Take `O=C(c1ccc(Cl)cc1)C(CN1CCCCC1)c1ccccc1` (stereo not drawn): the “% Inhibition @ 10 uM” value turned out to be 3.05%.
For the compound `COc1ccc(/C=C2\SC(=O)N(CC(=O)Nc3ccc(C)cc3)C2=O)cc1C`, the “% Inhibition @ 10 uM” value is recorded as -0.598%.
As to `CC1(C)CC(NCc2ccco2)CCO1` (stereo not drawn), the “% Inhibition @ 10 uM” value is given as -6.95%.
Turning to `Nc1ccc(-c2nc3cc(N)ccc3n2CCO)cc1`, the “% Inhibition @ 10 uM” value is listed as -5.41%.
Regarding `CCOc1ccc(C2C3=C(O)CC(C)(C)CC3=NC(C)=C2C(=O)Nc2ccccn2)cc1` (stereo not drawn), the “% Inhibition @ 10 uM” value was -0.305%.
With `CN(C)S(=O)(=O)c1ccc(C(=O)Nc2c3c(nn2-c2cccc(Cl)c2)CSC3)cc1`, the “% Inhibition @ 10 uM” value was 3.06%.
Turning to `O=C(CSc1nnc2scc(-c3ccccc3)n12)Nc1nc(-c2ccccc2)ns1`, the “% Inhibition @ 10 uM” value is -0.0626%.
Turning to `CCOC(=O)c1c(C)n(C)c2ccc(OCC(O)CNC(C)c3ccccc3)cc12` (stereo not drawn), the “% Inhibition @ 10 uM” value is recorded as -6.94%.
For the compound `Clc1cccc(OCCCCCCN2CCCCC2)c1`, the “% Inhibition @ 10 uM” value is -2.12%.
For the compound `CCc1cc(C)cc(OCCOc2cccc(C=C3C(=O)N(C)C(=O)N(C)C3=O)c2)c1`, the “% Inhibition @ 10 uM” value is recorded as -4.01%.
On to `COc1ccc(C(=O)CC2(O)C(=O)N(CC(N)=O)c3ccccc32)cc1` (stereo not drawn), for which the “% Inhibition @ 10 uM” value was -10.2%.
For `Cc1ccc(S(=O)(=O)N2C(=O)CCC2C(=O)NCCOc2ccccc2C)cc1` (stereo not drawn), the “% Inhibition @ 10 uM” value is listed as 4.19%.
In the case of `Cc1ccc(C)c(NC(=O)c2ccc(Cn3nc(C)c(Cl)c3C)o2)c1`, the “% Inhibition @ 10 uM” value amounted to 0.674%.
Then `COc1ccccc1N1CCN(C(=O)c2ccc(N(C)C)cc2)CC1`, with -2.74%.
On to `Cc1cccc(CCNC(=O)[C@H](Cc2ccccc2)N2Cc3ccccc3C2=O)c1`, for which the “% Inhibition @ 10 uM” value amounted to 2.93%.
In the case of `Cc1nn(CC(=O)N2CCC(C(N)=O)CC2)c(=O)c2nn(-c3ccccc3)c(C)c12`, the “% Inhibition @ 10 uM” value is -3.05%.
On to `CC1CCN(S(=O)(=O)c2ccc3c(ccn3CC(=O)N3CCCCCC3)c2)CC1`, for which the “% Inhibition @ 10 uM” value was -5.15%.
With `O=C1CCCC2=C1C(c1cccc([N+](=O)[O-])c1)Nc1ccc3ccccc3c12` (stereo not drawn), the “% Inhibition @ 10 uM” value stood at 5.64%.
For the compound `Cc1cc(C)c2c(N)c(C(=O)NCc3ccccc3)sc2n1`, the “% Inhibition @ 10 uM” value stood at 1.72%.
As for `CCOc1ccc(NC2=C(Cl)C(=O)N(c3ccc(C)cc3)C2=O)cc1`, the “% Inhibition @ 10 uM” value is reported as -1.84%.
Regarding `O=C(c1ccc2c(c1)C(=O)N(Cc1ccco1)C2=O)N1CCOCC1`, the “% Inhibition @ 10 uM” value was determined as 0.66%.
Then `CC1=C(C(=O)N2CCCCC2)C(c2cccc(O)c2)C2=C(O)CCCC2=N1` (stereo not drawn), with 3.45%.
Regarding `O=C(Nc1ccc(NC(=O)c2ccco2)cc1)c1ccccc1`, the “% Inhibition @ 10 uM” value came out at 1.34%.
Then `CCCCCCSc1nc(O)cc(O)n1`, with -1.42%; and `COCCNCC(=O)NC12CC3CC(CC(C3)C1)C2`, with 1.12%; and `O=C(Nc1nccs1)c1ccc(-c2cccc(C(F)(F)F)c2)o1`, with -0.132%.
The figure for `NS(=O)(=O)c1ccc(NC(=O)c2ccc(Cl)cc2)cc1` is 3.01%; for `CCNC(=S)N(CCc1c(C)[nH]c2ccc(OC)cc12)Cc1ccncc1` it is 5.4%; for `COc1cc(C2Nc3ccccc3N=C3CC(c4ccc5c(c4)OCO5)CC(O)=C32)cc(OC)c1O` (stereo not drawn) it is -9.12%.
Consider `Nc1c(C(=O)C2CC2)sc2nc(-c3ccc(F)cc3)cc(-c3ccccc3)c12`, for which the “% Inhibition @ 10 uM” value is given as -1.66%.
On to `OC(COC12CC3CC(CC(C3)C1)C2)CN1CCOCC1` (stereo not drawn), for which the “% Inhibition @ 10 uM” value is recorded as -8.75%.
`COc1ccc(-c2noc(N3CCCC(C(=O)NC4CCCc5ccccc54)C3)n2)cc1` (stereo not drawn): the “% Inhibition @ 10 uM” value was 3.44%.
On to `O=C(CCn1nc(-c2ccc(Cl)cc2)ccc1=O)NC1CCCC1`, for which the “% Inhibition @ 10 uM” value came to 4.81%.
Then `CC(=O)N[C@@H](CC1CCCCC1)C(=O)N[C@@H](CCc1ccccc1)C(=O)COCc1ccccc1`, with -3.49%; and `CCN(Cc1ccccc1)C(=O)c1oc2ccc(S(=O)(=O)N3CCOCC3)cc2c1C`, with -0.519%; and `CCc1ccc(-c2cn3c4ccccc4nc3n2CCO)cc1`, with 3.15%.
As to `Cn1ccnc1SCC(=O)NCCc1ccccc1`, the “% Inhibition @ 10 uM” value is given as 0.503%.
In the case of `COc1cccc(C2Nc3ccccc3N=C3CC(C)(C)CC(O)=C32)c1OC` (stereo not drawn), the “% Inhibition @ 10 uM” value was -0.759%.
As to `O=C(COc1ccccc1Cl)Nc1ccc(S(=O)(=O)N2CCCC2)cc1`, the “% Inhibition @ 10 uM” value was -0.251%.
For `O=C(CN1CCN(c2ccccc2)CC1)Nc1c2c(nc3c1CCC3)CCCC2`, the “% Inhibition @ 10 uM” value is on record as -5.13%.
On to `CCOC(=O)c1c(C)oc2ncnc(NC3CCN(C(=O)OCC)CC3)c12`, for which the “% Inhibition @ 10 uM” value was 3.54%.
On to `CN(C)c1ccc(-c2ncnn2-c2ccccc2)cc1`, for which the “% Inhibition @ 10 uM” value worked out at 3.18%.
For the compound `CCOc1ccccc1-c1nc(-c2cccc(OC)c2)no1`, the “% Inhibition @ 10 uM” value was -0.671%.
Then `CCn1cnc2sc(C)c(-c3ccc(Br)cc3)c2c1=O`, with -2.46%; and `c1ccc2[nH]c(SCc3cn4ccsc4n3)nc2c1`, with -1.72%; and `C=CCN1CC(c2nc3ccccc3n2Cc2ccccc2F)CC1=O` (stereo not drawn), with -1.71%.
Regarding `Cc1cc2nc(O)c(O)nc2cc1S(=O)(=O)NCCC(C)C`, the “% Inhibition @ 10 uM” value turned out to be 7.8%.
Regarding `C=CCNC(=O)Cc1c(O)nc2ccccc2c1O`, the “% Inhibition @ 10 uM” value is 0.219%.
Consider `CC(=O)c1cc(-c2ccc(F)cc2)n(CCC(=O)NC(C)c2ccccc2)c1C` (stereo not drawn), for which the “% Inhibition @ 10 uM” value is on record as -3.64%.
As to `CCc1ccc(CN(C(=O)c2cc(=O)c3cc(Cl)ccc3o2)C2CCS(=O)(=O)C2)cc1` (stereo not drawn), the “% Inhibition @ 10 uM” value was 3.51%.
For `Cc1ccc(C2=NC3(CCN(C(=O)Cc4ccccc4)CC3)NC2=O)cc1`, the “% Inhibition @ 10 uM” value is on record as -0.238%.
The figure for `C=CCn1c(C(C)Oc2cccc(C)c2)nc2ccccc21` (stereo not drawn) is 3.61%; for `Cc1cccc(N2CCN(C(=O)c3ccc([N+](=O)[O-])cc3Cl)CC2)c1C` it is -5.62%.
With `CC(O)CN(Cc1ccccc1F)CC(C)O` (stereo not drawn), the “% Inhibition @ 10 uM” value is -8.99%.
For the compound `CC1(C)Cc2c(ccc3ccccc23)CN1C(=O)c1ccccc1`, the “% Inhibition @ 10 uM” value worked out at 0.27%.
In the case of `O=C(Cn1nc(C(F)(F)F)cc1C1CC1)Nc1ccc(C(=O)N2CCOCC2)cc1`, the “% Inhibition @ 10 uM” value was determined as 1.59%.
Regarding `Fc1ccc(-c2noc3ncnc(N4CCC(Cc5ccccc5)CC4)c23)cc1`, the “% Inhibition @ 10 uM” value is recorded as -3.83%.
On to `CCOC(=O)N1CCC(c2nc(C)sc2C(=O)NCc2ccc(Cl)cc2)CC1`, for which the “% Inhibition @ 10 uM” value is -4.74%.
For the compound `O=C(Cn1ncc2c3ccccc3nc-2c1O)NCC1CCN(Cc2ccccc2F)CC1`, the “% Inhibition @ 10 uM” value is listed as 1.66%.
As to `CC(=O)c1ccc(N2CCN(Cc3ccsc3)CC2)cc1`, the “% Inhibition @ 10 uM” value is 1.38%.
Turning to `CCCCNC(=O)C1CCN(c2nc3ccccc3n3cccc23)CC1`, the “% Inhibition @ 10 uM” value is recorded as -7.65%.
Then `OCCCN1CCN(CCOc2ccccc2-c2ccccc2)CC1`, with -0.519%.
